# Reference: ChEMBL document CHEMBL4888484, “Replenishing the malaria drug discovery pipeline: Screening and hit evaluation of the MMV Hit Generation Library 1 (HGL1) against asexual blood stage Plasmodium falciparum ,using a nano luciferase reporter read-out” (2022)
# In all, about 150,000 compounds went through this assay and about 540 (0.36%) showed an effect of 50% or more. The list shows a part of the results.
# Test system: Plasmodium falciparum
# Assay: Primary screen in NF54 nanoGlo assay, in single point, at 2uM, 72h; a lower Z score goes with more inhibition
# Assay type: functional, Erythrocyte
# Settings: timepoint 72 hour
Compound,% Inhibition [%],Z score
CC(=O)N1CCN(C(=O)c2cn(Cc3ccccc3)nc2OCc2ccccc2)CC1,-7,0.78
Cc1n[nH]c(C)c1CCN(C)C(=O)c1cn(C[C@H]2CCCO2)nn1,-12,1.88
CS(=O)(=O)C1CC2CCC(C1)N2S(=O)(=O)c1ccccc1C(F)(F)F (stereo unspecified),-8,1.02
Cc1ccc(NC(=O)c2cc(S(=O)(=O)N3CCCCCC3)cn2C)cc1F,1,-0.15
CCCc1nc(N[C@@H](C)c2nc(-c3ccccn3)no2)c2cnn(C)c2n1,6,-0.87
CCOC(C)c1noc(CNC(=O)NC2CCCC2(C)C)n1 (stereo unspecified),-6,0.89
CCN1CCN(C/C=C/COc2ccc(OC)cc2)CC1,-3,0.46
CCC(=O)N1CC[C@H](NCc2ccc(C)cc2Br)C1,-10,1.35
CCCN1C(=O)CC[C@@H]2CN(C(=O)c3cc(C)c(C)[nH]c3=O)CC[C@@H]21,-15,1.94
CCC(=O)N[C@H](c1cccc(F)c1F)C(F)(F)F,-8,0.97
Cc1cc(C(=O)NS(C)(=O)=O)ns1,33,-3.77
O=C(O)[C@H]1CN(S(=O)(=O)c2coc3ccccc23)CCC1(F)F,-15,2.81
CCCc1nnc(N2CCC([C@@H](O)Cc3ccccc3)CC2)o1,6,-1.1
O=C(NCCc1cnc(C2CC2)nc1)N1CCC2(C=Cc3ccccc3O2)CC1,-5,0.92
COc1ccccc1CNS(=O)(=O)c1ccc2c(c1)OC[C@@H](C(=O)N1CCOCC1)O2,-17,1.87
Cc1cscc1C(=O)N[C@@H](C)CC(=O)O,-4,0.56
COc1cccc([C@@H](O)Cn2nc3c(cc2=O)CCC3)c1,-12,1.89
CCNC(=O)CN(CC)C(=O)N[C@@H](CC)c1cccc(Cl)c1,-7,0.93
Cc1nonc1CC(=O)NCC[C@H]1CN(C2CCCCC2)CCO1,-6,1.23
Cc1nc2cc(N3C[C@@H](C(=O)N4CCN(c5ccccc5)CC4)CC3=O)ccc2o1,-9,1.83
CCn1ncnc1[C@@H](NC(=O)c1ccncc1Cl)C1CC1,-5,0.94
CC(C)c1nccc(C(=O)N(C)CCN2CCCC2)n1,-13,1.37

Compound,% Inhibition [%],Z score
Cn1nnc2c(N3CCCC[C@@H]3Cc3ccccc3F)ncnc21,-9,1.39
O=C(Nc1ccccc1N1CCCC1=O)C1=NN(CCO)C(=O)CC1,19,-2.44
O=C1CCCN1c1ccc(OS(=O)(=O)c2ccc3c(c2)CCCC3)cc1,-6,0.93
COc1ccc2c(c1)CN(c1nnc(C3CC3)o1)CC2,33,-1.01
Fc1ccccc1-n1ncc2c1CCC[C@@H]2NCc1cnc(-c2ccc(Cl)cc2)nc1,3,-0.51
Cc1ccc(S(=O)(=O)N[C@H](c2nc(-c3ccc(-c4csc(C)n4)cc3)no2)C(C)C)cc1,-12,1.26
O=C(c1ccccn1)N1CCN(c2cccnc2)C(=O)C1,-8,1.53
O=C(Nc1nnc(CCCc2ccccc2)s1)c1ccccc1,-11,2.13
O=C(NCCc1cccs1)c1ccc(Oc2nccnc2N2CCCCC2)cc1,-4,0.5
Cc1nn(C)c(C)c1C(=O)N(Cc1ccnc(OC(C)C)c1)C1CC1,-10,0.93
Cc1csc(CNC(=O)Cc2csc(C)n2)n1,-5,0.61
CCC(CC)C(=O)Nc1ccc(Cl)cc1Cl,-2,0.25
CCOC(=O)N1CCC(N[C@@H](CC)c2nc(C)cs2)CC1,-7,0.89
O=c1[nH]nc2c(N3CC[C@H](NCc4ccccc4F)C3)nccn12,-1,0.14
CC(C)(C)c1ccc(NS(=O)(=O)c2cc(F)c(F)c(F)c2)nn1,-3,0.35
COC(=O)c1ccccc1CCC(=O)N1CCC[C@H]1c1ccncc1,-6,0.55
CC(C)(C)OC(=O)N[C@@H](CC(=O)O)c1cccc(O)c1,-5,0.67
CC1CCC(C)N1Cc1nc(-c2ccsc2)no1 (stereo unspecified),-8,1.59
Cc1nn(C)c(C)c1C[C@H](C)C(=O)N1CCOc2cccc(F)c21,-1,0.19
COc1ccc(Br)c(CC(=O)N(C)c2cccc(C)n2)c1,-8,0.72
Cc1nn(CCN2CCN(C)CC2)cc1CN1CC(n2cccn2)C1,2,-0.3
